# According to PubChem BioAssay (NCI):
#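 1) Cells in 96-well plates. 2) Compound, 48 h, 5 concentrations. 3) Linear interpolation between surrounding doses. 4) Unreached endpoint = highest concentration. GI50 marks 50% less growth. TGI denotes the concentration required for complete inhibition of growth.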
# Tested on: NCI-H322M lung
# Assay: NCI tumour cell line growth inhibition, 48 h
Compound,GI50 [µM],TGI [µM]
O=C(CNc1nc(-c2ccccc2)cs1)Nc1cccc([N+](=O)[O-])c1,0.359,1.34
NS(=O)(=O)c1cccc(Nc2nc(SCC(=O)c3ccc(F)cc3)nc3ccccc23)c1,16.5,> 57.7
CCOC(=O)C(Cc1ccccc1)N1C(=O)/C(=C/N2N=C(c3ccc(OC)cc3)CC2c2ccc3ccccc3c2)SC1=S (configuration not stated),4.13,15.4
Cn1ncc2c(N)nc(Oc3ccccc3-c3ccccc3)nc21,27.2,> 100
CN1CCN(Cc2ccc(NC(=O)c3cncc(C#Cc4cnc5ccc(N[C@@H]6CCOC6)nn45)c3)cc2C(F)(F)F)CC1,0.193,0.592
N#Cc1c(NC(=O)c2ccc(C(F)(F)F)c(Cl)c2)sc2c1CCC(=O)C2,3.88,18.6
